Data from PubChem BioAssay AID686978 (National Center for Advancing Translational Sciences (NCATS), 2013).
In all, about 420,000 compounds went through this assay and about 64,000 (15%) were called active. Inconclusive results, whose numbers are uncertain, are shown with a selection of clear calls. The call rests on the fitted dose curve; in most records, active means well fitted inhibition curve with a large enough effect; inconclusive means small, poorly fitted or top-dose-only effect; inactive means flat fitted curve, though single readings scatter. No potency is given beside an inconclusive call; the fits are too rough.

Test: qHTS for Inhibitors of human tyrosyl-DNA phosphodiesterase 1 (TDP1): qHTS in cells in absence of CPT; further: nearly all actives have a fitted effect of over 55% in size
Details: DT40 Tdp1-/- hTDP1 cells, no CPT, ATP luminescence, 48 h; activity change, negative = growth inhibition: at 46.2 µM (top of the series)
Outline: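 Seeded 400 DT40-hTDP1 cells/well (vehicle DMSO, no 20 nM CPT); pinned compounds; ≥48 hr at 37 °C; CellTiter-Glo luminescence as viability measure.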
On the % scale 0 is the no-effect control and ±100 the full control effect; potency means the concentration at half of the fitted maximal effect; tags describe the fitted curve by direction and shape.

Structure (SMILES) | Potency | activity change, negative = growth inhibition
Cc1cc(C)c(NC(=O)CSc2nc(=O)n(CCN3CCOCC3)c3c2CCC3)c(C)c1 | inactive | 
Cc1c(C(C)(C)C)c(C=S)n2ccccc12 | inconclusive [inhibitor, partial curve, poor fit] | 
COc1ccccc1CNC(=O)[C@@H]1CCCN1S(=O)(=O)c1ccc(C)cc1 | inactive | 
COCc1cc(Sc2c(Cl)cccc2Cl)nc(-c2ccccc2)n1 | inconclusive [inhibitor, partial curve, poor fit] | 
CCOC(=O)N1CCN(C(=S)NC(=O)C23CC4CC(CC(C4)C2)C3)CC1 | inconclusive [inhibitor, partial curve] | 
CN(C1CCCCC1)S(=O)(=O)c1ccc2c(c1)c(=O)c(C(=O)N1CCN(c3ccc(F)cc3)CC1)cn2C | inactive | 
O=c1cc2c(c(-c3ccccc3)n1Cc1ccccc1)[C@@H](CCO)NC2 | inactive | 
Cc1ccc(-c2noc(CN(C(=O)c3cccc(Br)c3)C(C)C)n2)cc1 | inconclusive [inhibitor, single point] | 
O=C(CN(Cc1ccc(Cl)cc1)C(=O)c1csnn1)NCc1ccc(F)cc1 | inconclusive [inhibitor, single point] | 
Fc1ccc(N2CCN(c3ncnc4c3nnn4Cc3ccccc3Cl)CC2)cc1 | active: 14.6 µM | 
Cc1cccc2nc(CSc3nc4ccccc4o3)cn12 | inactive | 
CC1(C(=O)NCc2ccc(Cl)cc2)CCN1C(=O)Cc1cccs1 (centres undefined) | inconclusive [inhibitor, single point] | 
CCc1ccc(NC(=S)N(Cc2cccnc2)Cc2ccco2)cc1 | active: 18.4 µM | 
Cc1ccc(C(=O)c2cn(Cc3cc(C)ccc3C)c3nc(C)ccc3c2=O)cc1 | active: 20.6 µM | 
CCCCCCNC(=O)CCc1c(C)nc2nc(-c3cc(OC)cc(OC)c3)nn2c1C | active: 16.4 µM | 
Cc1cc(C)n(-c2nc3ccccc3c(=O)n2OCc2ccc(Cl)cc2)n1 | inconclusive [inhibitor, single point] | 
Cc1ccc(S(=O)(=O)Cn2nnnc2C(C(C)C)N2CCC(O)CC2)cc1 (centres undefined) | inactive | 
CN(C)c1cccc(CNC(=O)c2csc([C@@H]3O[C@H](CO)[C@@H](O)[C@H]3O)n2)c1 | active: 11.6 µM | 
Cc1cccc(C)c1NC(=O)CN(C)C(=O)c1cc([N+](=O)[O-])ccc1N1CCOCC1 | inactive | 
CCOC(=O)c1c(/N=C/C2=C(O)CC(C)(C)CC2=O)sc2c1CCCC2 | inactive | 
CCOC(=O)c1c(C)[nH]c(C(=O)COC(=O)C23CC4CC(CC(Cl)(C4)C2)C3)c1C | inconclusive [inhibitor, single point] | 
Cc1cc(C)nc(SC2=CS(=O)(=O)c3ccccc32)n1 | active: 18.4 µM | 
CCc1ccccc1NC(=O)c1nn(-c2ccc(C)cc2)c(=O)c2c1c1ccccc1n2C | inactive | 
CN1CCN(c2ccc(NC(=O)C(C)(c3ccccc3)c3ccccc3)cc2)CC1 | inconclusive [inhibitor, single point] | 
O=C(CSc1nc(-c2ccc(F)cc2)cs1)N1CCN(C(=O)c2ccco2)CC1 | inconclusive [inhibitor, single point] | 

Structure (SMILES) | Potency | activity change, negative = growth inhibition
CCS(=O)(=O)n1nc(-c2ccco2)nc1NCc1ccc(C(C)C)cc1 | active: 16.4 µM | 
CCCCn1c(SCC(=O)Nc2cccc(OC)c2)nc2ccc(N3CCOCC3)cc2c1=O | inconclusive [inhibitor, single point] | 
COc1cccc(CNC(=O)C2CCN(S(=O)(=O)c3ccc(Br)s3)CC2)c1 | inactive | 
COc1ccc(Nc2nc(C(C)(C)C)nc3c2nnn3Cc2ccccc2Cl)cc1OC | active: 14.6 µM | 
CCOC(=O)c1c(NC(=S)Nc2ccc(F)cc2)sc2c1CCC2 | inactive | 
N#CCCn1nc(-c2ccc([N+](=O)[O-])cc2)cc1Nc1ccccc1NC(=O)C(F)(F)F | inconclusive [inhibitor, single point] | 
COc1ccc(CCNC(=O)c2nnc(CS(=O)(=O)c3ccccc3)o2)cc1OC | inconclusive [inhibitor, single point] | 
CCCCCN(C(=O)CCC(=O)OCC(=O)c1ccc(F)c(F)c1)c1c(N)n(CCCC)c(=O)[nH]c1=O | inactive | 
CC1CCCCC12NC(=O)N(CC(=O)Nc1ccccc1N1CCOCC1)C2=O (centres undefined) | inactive | 
CC(=O)C(=Cc1cccc(C#N)c1)C(=O)c1ccccc1 | active: 16.4 µM | 
CCc1nc2ccc(C(=O)Nc3cccc(OCC(=O)N(C)C)c3)cn2c1N(C)C(=O)c1cccc(OC)c1 | inconclusive [inhibitor, single point] | 
CCOC(=S)NC(=O)c1sc2ccccc2c1Cl | inconclusive [inhibitor, single point] | 
COc1ccccc1NC(=O)c1sc2nc(-c3ccco3)ccc2c1N | inconclusive [inhibitor, single point] | 
CN(C)C(=O)c1ccc(NC(=O)CSc2nc3ccccc3[nH]2)cc1 | inactive | 
O=C(NC1CCCCC1)N(Cc1ccccc1)Cc1ccco1 | inconclusive [inhibitor, partial curve] | 
O=C(CN1CCN(c2ccccn2)CC1)Nc1ccc(F)c(F)c1 | inactive | 
CC(=O)Nc1ccc(NC(=O)C(NC(=O)C2CCC(C)CC2)C(C)C)cc1 (centres undefined) | inactive | 
CC(C)c1c(C(=O)N/N=C/c2cccc(OCc3ccccc3)c2)nnn1-c1nonc1N | inactive | 
C=CCN1C(=O)c2ccc(C(=O)N(C)Cc3ccc(C)o3)cc2C1=O | inactive | 
Cc1cccc(-c2nnc(SCC(=O)C(C)(C)C)n2C)c1 | inconclusive [inhibitor, single point] | 
O=C(NNC(=S)Nc1cccc(Cl)c1)c1ccccc1 | inconclusive [inhibitor, single point] | 
COc1cccc(OC)c1OCCCN1CCC(Cc2ccccc2)CC1 | inconclusive [inhibitor, single point] | 
Cc1ccc(-n2cnc3cc(C(=O)NC4CCCCCC4)ccc32)c(C)c1 | active: 16.4 µM | 
Cc1ccc(C)c(NS(=O)(=O)c2cc(C(=O)Nc3ccccc3-c3ccccc3)ccc2C)c1 | inconclusive [inhibitor, single point] | 
CCOc1ccc(NC(=O)C2CCC(CNc3c(N4CCC(C)CC4)c(=O)c3=O)CC2)cc1 (centres undefined) | inactive | 

Structure (SMILES) | Potency | activity change, negative = growth inhibition
COc1ccc(S(=O)(=O)Nc2ccccc2-c2nc3ccccc3[nH]c2=O)cc1 | inconclusive [inhibitor, single point] | 
COc1cc2[nH]c(=O)n(CCCCCC(=O)NCCCN3CCCC3=O)c(=O)c2cc1OC | inactive | 
COc1ccc(C)cc1NC(=O)C1CCC(CNS(=O)(=O)c2ccc3c(c2)CCCC(=O)N3)CC1 (centres undefined) | active: 4.61 µM | 
CCOc1ccc(C(C(=O)NCCOC)N(CCOC)C(=O)CCC(=O)Nc2ccccn2)cc1 (centres undefined) | inactive | 
CN(Cc1ccc(Cl)cc1)C(=O)c1ccc2ccccc2n1 | inconclusive [inhibitor, single point] | 
CCCc1cc(=O)n2[nH]c(SCc3ccccc3)nc2n1 | inactive | 
O=S(=O)(NCCOc1ccccc1F)c1cccc(Br)c1 | inactive | 
CCOC(=O)C(CC)Sc1nnc2cc(C)c3ccccc3n12 (centres undefined) | inconclusive [inhibitor, partial curve, poor fit] | 
CCCCOc1ccc(N2C(=O)CC(N(CCc3ccccc3)C(=O)/C=C/C(=O)O)C2=O)cc1 (centres undefined) | inactive | 
COC(=O)Cn1cnc2c(nnn2-c2ccc(F)cc2)c1=O | inactive | 
N#CCCN(C(=O)COC(=O)c1ccc(CNS(=O)(=O)c2ccc(F)c(Cl)c2)cc1)c1ccc(F)cc1 | inconclusive [inhibitor, single point] | 
CCCCn1nnnc1C(c1ccccc1)N1CCc2ccccc2C1 (centres undefined) | inconclusive [inhibitor, single point] | 
CCc1ccc(Cn2nnc3c(=O)[nH]c(C4CCCN(C(=O)c5cccc(Cl)c5)C4)nc32)cc1 (centres undefined) | inconclusive [inhibitor, single point] | 
CCN(c1ccccc1)S(=O)(=O)c1cc(NC(=O)C2CC2)ccc1Cl | inactive | 
CCCCn1nnnc1NCc1ccc(N2CCCC2)cc1 | inconclusive [inhibitor, partial curve, poor fit] | 
CC(C)c1nn2c(=O)cc(COC(=O)C3CCCCC3)nc2s1 | inactive | 
CO/N=C(/C(=O)NC1C(=O)N2C(C(=O)O)=C(CSc3nc(=O)c(O)nn3C)CSC12)c1csc(N)n1 (centres undefined) | inconclusive [inhibitor, single point] | 
Cc1ccc(NC(=O)c2ccc3ccccc3n2)nc1 | inconclusive [inhibitor, partial curve] | 
CC(=O)c1c(C)oc2ccc(NS(=O)(=O)c3ccc(C)cc3)cc12 | active: 8.2 µM | 
CCN(CC)C(=O)CSc1nc2cc3c(cc2c(=O)n1Cc1ccco1)OCO3 | inconclusive [inhibitor, partial curve, poor fit] | 
COc1cc(NC(=O)Nc2ccccc2OC)c(OC)cc1NC(=O)CN1CCCCC1 |  | inconclusive: -36% [inhibitor]
Cc1ccc(S(=O)(=O)c2nnn3c2nc(NC2CCCCCC2)c2sccc23)cc1C | active: 20.6 µM | 
C=CCn1c(SCC(=O)Nc2ccccc2OC)nnc1-c1ccccn1 | inconclusive [inhibitor, single point] | 
CCCCNC(=O)/C(C#N)=C/c1cccnc1 | inconclusive [inhibitor, partial curve, poor fit] | 
